# In publication PMC12820563:
# Some of the results follow. The list includes weakly bound sequences.
# Target: T1, MBP-FoxP3dN (UniProt Q99JB6)
# T1 sequence: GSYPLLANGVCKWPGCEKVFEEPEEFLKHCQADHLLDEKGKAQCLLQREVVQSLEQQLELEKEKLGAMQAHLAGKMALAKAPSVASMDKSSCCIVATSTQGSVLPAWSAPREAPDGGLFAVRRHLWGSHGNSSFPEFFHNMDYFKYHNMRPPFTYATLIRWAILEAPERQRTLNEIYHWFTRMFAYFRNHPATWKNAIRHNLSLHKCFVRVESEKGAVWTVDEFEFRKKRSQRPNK
# Assay: PD-seq (MBP pull-down with sequencing)
# Conditions: 20 mM Tris-HCl pH 7.5, 100 mM NaCl, 1.5 mM MgCl2, 0.4 uM protein, 0.1 uM dsDNA library, 30 min, room temperature, amylose pull-down; high values mean tight binding; double strand, one strand shown
row,Sequence,binding signal (RPM ratio (pull-down/input))
1,GATGATTGTTCTCCCAGCTGATGAATTTTGCTAATCGAGTAAACAAATTTTCCTAATCTTTCTGTTCAAGCGCCATCTAC,0.575
2,GATGATTGTTCTCCCAGCTGATGAATTCGGTCACTCGAGTAAACAAATTTTCCTAATCTTTCTGTTCAAGCGCCATCTAC,0.603
3,GATGATTGTTCTCCCAGCTGATGAATTGCGTAGCTCGAGTAAACAAATTTTCCTAATCTTTCTGTTCAAGCGCCATCTAC,1.02
4,GATGATTGTTCTCCCAGCTGATGAATTTGCTTACTCGAGTAAACAAATTTTCCTAATCTTTCTGTTCAAGCGCCATCTAC,6.78
5,GATGATTGTTCTCCCAGCTGATGAATTAGTGCCCTCGAGTAAACAAATTTTCCTAATCTTTCTGTTCAAGCGCCATCTAC,0.774
6,GATGATTGTTCTCCCAGCTGATGAATTACAACTGTCGAGTAAACAAATTTTCCTAATCTTTCTGTTCAAGCGCCATCTAC,0.794
7,GATGATTGTTCTCCCAGCTGATGAATTCATCGATTCGAGTAAACAAATTTTCCTAATCTTTCTGTTCAAGCGCCATCTAC,0.372
8,GATGATTGTTCTCCCAGCTGATGAATTAACCAAGTCGAGTAAACAAATTTTCCTAATCTTTCTGTTCAAGCGCCATCTAC,0.181
9,GATGATTGTTCTCCCAGCTGATGAATTCTATGACTCGAGTAAACAAATTTTCCTAATCTTTCTGTTCAAGCGCCATCTAC,0.398
10,GATGATTGTTCTCCCAGCTGATGAATTCTGATTGTCGAGTAAACAAATTTTCCTAATCTTTCTGTTCAAGCGCCATCTAC,3.01
11,GATGATTGTTCTCCCAGCTGATGAATTAAAGCTCTCGAGTAAACAAATTTTCCTAATCTTTCTGTTCAAGCGCCATCTAC,0.451
12,GATGATTGTTCTCCCAGCTGATGAATTCTCTCCGTCGAGTAAACAAATTTTCCTAATCTTTCTGTTCAAGCGCCATCTAC,0.188
13,GATGATTGTTCTCCCAGCTGATGAATTCTAACTTTCGAGTAAACAAATTTTCCTAATCTTTCTGTTCAAGCGCCATCTAC,0.375
14,GATGATTGTTCTCCCAGCTGATGAATTTCATTATTCGAGTAAACAAATTTTCCTAATCTTTCTGTTCAAGCGCCATCTAC,1.44
15,GATGATTGTTCTCCCAGCTGATGAATTCGTGTGGTCGAGTAAACAAATTTTCCTAATCTTTCTGTTCAAGCGCCATCTAC,1.4
16,GATGATTGTTCTCCCAGCTGATGAATTTCGGTAGTCGAGTAAACAAATTTTCCTAATCTTTCTGTTCAAGCGCCATCTAC,0.427

row,Sequence,binding signal (RPM ratio (pull-down/input))
1,GATGATTGTTCTCCCAGCTGATGAATTGACGAGCTCGAGTAAACAAATTTTCCTAATCTTTCTGTTCAAGCGCCATCTAC,0.244
2,GATGATTGTTCTCCCAGCTGATGAATTTTCGGTCTCGAGTAAACAAATTTTCCTAATCTTTCTGTTCAAGCGCCATCTAC,0.366
3,GATGATTGTTCTCCCAGCTGATGAATTCTAATAATCGAGTAAACAAATTTTCCTAATCTTTCTGTTCAAGCGCCATCTAC,0.331
4,GATGATTGTTCTCCCAGCTGATGAATTTCTCAGGTCGAGTAAACAAATTTTCCTAATCTTTCTGTTCAAGCGCCATCTAC,0.172
5,GATGATTGTTCTCCCAGCTGATGAATTTAGAGCATCGAGTAAACAAATTTTCCTAATCTTTCTGTTCAAGCGCCATCTAC,0.922
6,GATGATTGTTCTCCCAGCTGATGAATTATAGGCGTCGAGTAAACAAATTTTCCTAATCTTTCTGTTCAAGCGCCATCTAC,0.633
7,GATGATTGTTCTCCCAGCTGATGAATTAGACTCGTCGAGTAAACAAATTTTCCTAATCTTTCTGTTCAAGCGCCATCTAC,0.388
8,GATGATTGTTCTCCCAGCTGATGAATTTCGTCTTTCGAGTAAACAAATTTTCCTAATCTTTCTGTTCAAGCGCCATCTAC,0.758
9,GATGATTGTTCTCCCAGCTGATGAATTCCTACATTCGAGTAAACAAATTTTCCTAATCTTTCTGTTCAAGCGCCATCTAC,0.384
10,GATGATTGTTCTCCCAGCTGATGAATTCAAAGGCTCGAGTAAACAAATTTTCCTAATCTTTCTGTTCAAGCGCCATCTAC,0.281
11,GATGATTGTTCTCCCAGCTGATGAATTTCACACGTCGAGTAAACAAATTTTCCTAATCTTTCTGTTCAAGCGCCATCTAC,0.317
12,GATGATTGTTCTCCCAGCTGATGAATTATGGGAGTCGAGTAAACAAATTTTCCTAATCTTTCTGTTCAAGCGCCATCTAC,0.328
13,GATGATTGTTCTCCCAGCTGATGAATTTACGGCTTCGAGTAAACAAATTTTCCTAATCTTTCTGTTCAAGCGCCATCTAC,0.597
14,GATGATTGTTCTCCCAGCTGATGAATTGCCATCCTCGAGTAAACAAATTTTCCTAATCTTTCTGTTCAAGCGCCATCTAC,0.935
15,GATGATTGTTCTCCCAGCTGATGAATTAGTCAATTCGAGTAAACAAATTTTCCTAATCTTTCTGTTCAAGCGCCATCTAC,0.607
